# Out of some 310,000 compounds screened, about 14,000 (4.5%) showed an effect of 50% or more. The effect is printed as a negative number. This is one part of the list.
# Target: human ether-à-go-go-related gene (hERG) potassium channel (human, UniProt Q12809)
# Assay: primary screen, population patch clamp on CHO cells stably expressing hERG
# 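Note: peak tail current of the secondary pulse compared with the same well before compound.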
# Chain of human ether-à-go-go-related gene (hERG) potassium channel (Q12809 whole entry, looked up): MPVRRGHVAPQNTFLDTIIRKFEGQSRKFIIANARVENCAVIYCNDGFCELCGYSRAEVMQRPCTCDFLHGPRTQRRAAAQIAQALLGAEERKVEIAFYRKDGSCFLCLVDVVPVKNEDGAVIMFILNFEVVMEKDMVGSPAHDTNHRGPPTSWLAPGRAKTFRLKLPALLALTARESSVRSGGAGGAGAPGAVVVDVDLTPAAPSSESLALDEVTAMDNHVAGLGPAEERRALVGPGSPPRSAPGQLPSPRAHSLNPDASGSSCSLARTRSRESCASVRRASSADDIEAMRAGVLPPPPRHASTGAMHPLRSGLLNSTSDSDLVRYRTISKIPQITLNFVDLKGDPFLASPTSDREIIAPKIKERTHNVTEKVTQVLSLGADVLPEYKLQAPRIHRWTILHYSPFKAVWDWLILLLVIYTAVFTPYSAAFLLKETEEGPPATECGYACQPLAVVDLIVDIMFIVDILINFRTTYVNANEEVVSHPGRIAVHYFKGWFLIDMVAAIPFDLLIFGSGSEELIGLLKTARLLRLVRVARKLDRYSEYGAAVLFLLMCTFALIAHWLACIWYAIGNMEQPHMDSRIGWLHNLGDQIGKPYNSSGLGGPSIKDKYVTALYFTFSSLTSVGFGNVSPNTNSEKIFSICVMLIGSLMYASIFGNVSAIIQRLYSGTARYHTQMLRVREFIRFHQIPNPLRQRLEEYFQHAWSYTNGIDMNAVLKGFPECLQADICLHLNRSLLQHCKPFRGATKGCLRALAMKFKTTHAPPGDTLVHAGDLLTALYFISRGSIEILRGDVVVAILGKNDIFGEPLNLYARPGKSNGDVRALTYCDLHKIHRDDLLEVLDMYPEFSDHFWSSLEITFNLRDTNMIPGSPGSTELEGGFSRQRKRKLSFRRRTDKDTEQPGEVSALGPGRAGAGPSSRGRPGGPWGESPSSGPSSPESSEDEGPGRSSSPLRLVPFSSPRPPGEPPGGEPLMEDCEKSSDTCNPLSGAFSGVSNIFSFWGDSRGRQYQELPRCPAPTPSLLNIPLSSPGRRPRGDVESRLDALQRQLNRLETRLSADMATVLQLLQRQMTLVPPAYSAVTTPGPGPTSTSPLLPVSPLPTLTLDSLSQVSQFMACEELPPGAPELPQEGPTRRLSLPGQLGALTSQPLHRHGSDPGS
row,Compound,"hERG current change (%, negative = inhibition) at 10uM"
1,Cc1c(N(C)S(=O)(=O)c2cccc(C(=O)NC(C)C)c2)c(=O)n(-c2ccccc2)n1C,26.7%
2,COc1ccc(-c2nc3c(c(=O)[nH]c(=O)n3Cc3ccccc3)n2CCO)cc1,21.2%
3,O=C(CN(Cc1ccccc1Cl)C(=O)Cn1nnc(-c2cccs2)n1)NCC1CCCO1 (stereo not drawn),-12.3%
4,CCOC(=O)N(c1ccccc1)P1(=S)OCC(C)O1 (stereo not drawn),14.6%
5,Cc1ccccc1C(OCC(O)CN1CCN(CCO)CC1)c1ccccc1.O=C(O)C(=O)O (stereo not drawn),-12.1%
6,Cc1nn(-c2ccccc2)c2sc(C(=O)NC3CC3)cc12,-1.38%
7,O=C(NCCCN1CCOCC1)c1ccc2c(c1)N(Cc1cccc(Cl)c1)C(=O)CS2,-16.7%
8,Cc1nnsc1C(=O)N1CCN(c2ccc(C#N)cn2)CC1,-25.2%
9,CCN(CC)S(=O)(=O)c1ccc(Cl)c(NC(=S)NC(=O)C2CCCC2)c1,4.83%
10,CCOc1cccc2cc(C(=O)N3CCN(C/C=C/c4ccccc4)CC3)c(=O)oc12,-28.8%
11,COCC(=O)N1CCC(Oc2ccc(C(=O)NCc3cc(C(C)C)no3)cc2)CC1,-2.22%
12,CCOc1ccc(S(=O)(=O)NNS(=O)(=O)c2ccc(C)cc2C)cc1,13.4%
13,NS(=O)(=O)c1ccccc1NC(=O)c1c(O)c2ccccc2[nH]c1=O,18.4%
14,Cc1cccc(C(=O)NCCN2CCOCC2)c1[N+](=O)[O-],4.8%
15,CC(=O)/C=C(\C)Nc1c(C)n(C)n(-c2ccccc2)c1=O,22.6%
16,Cc1c(C(=O)N(C)C)c2ccc(Cl)cc2n1O,15.6%
17,O=C(CNC(=O)c1ccccc1F)NCCN1C(=O)S/C(=C\c2ccc3c(c2)OCO3)C1=O,-13.7%
18,COC(=O)c1ccccc1OCCCOc1ccc(C=O)cc1OC,-4.02%
19,Cc1nc(C)c(/C(O)=C/c2nc3ccccc3oc2=O)s1,13.2%
20,CCc1ccc(OCc2nnc(SCCN3CCOCC3)n2CC)cc1.O=C(O)C(=O)O,-22.6%
21,Cc1nc(N2CCOCC2)c2c(C)c(C(=O)Nc3ccc(F)cc3Cl)sc2n1,-3.4%
22,COc1ccc(NC(=S)N2CCN(CCN=CC3=C(O)CC(c4ccccc4)CC3=O)CC2)cc1 (stereo not drawn),-45.7%
23,Cc1ccc(CSc2nc(-c3ccccc3)c(C#N)c(=O)[nH]2)cc1,15.2%

row,Compound,"hERG current change (%, negative = inhibition) at 10uM"
1,O=C1C=C(c2ccccc2)CC(/C=C/c2ccccc2)C1 (stereo not drawn),-2.91%
2,Clc1ccc2nnnc(-c3ccccc3)c2c1,-9.98%
3,CCN(CC)CCNC(=O)Cn1cnc2sc(C)c(S(=O)(=O)N3CCN(c4ncccn4)CC3)c2c1=O,10.5%
4,Nc1c(C(=O)CSc2nncn2-c2ccccc2)c(=O)[nH]c(=O)n1C1CC1,2.23%
5,CCC(CC)C(=O)Nc1c(C)n(C)n(-c2ccccc2)c1=O,6.19%
6,CNC(=S)N1N=C(c2ccc(Br)cc2)CC1c1ccc(OC)cc1 (stereo not drawn),13.3%
7,O=C(c1csc2ccccc12)N1CCN(c2ccccn2)CC1,-22.1%
8,COc1ccc(C(=O)N2CCCC(CO)(Cc3ccccc3C)C2)o1 (stereo not drawn),-8.3%
9,CCOC(=O)c1cnn(-c2ccccc2)c1NC(=O)c1ccc(C)cc1,-26.4%
10,CCc1ccc(NC(=O)CCc2c(C)nn(-c3ccc(N4CCOCC4)nn3)c2C)cc1,-5.77%
11,S=c1nc(-c2ccccc2Cl)[nH][nH]1,21.4%
12,O=C(Nc1ccc(Cl)cc1)C1CCCN(C2=NS(=O)(=O)c3ccccc32)C1 (stereo not drawn),-60%
13,COc1cc(NC(=O)c2cc3ccccc3cc2OC)ccc1NC(=O)c1cccs1,9.15%
14,Cc1[nH]n(-c2ccccc2)c(=O)c1/C=N/NC(=O)c1cccc([N+](=O)[O-])c1,7.53%
15,COc1ccc(C2C(CC(=O)O)=C(Nc3ccccc3)C(=O)N2c2ccccc2)cc1 (stereo not drawn),22%
16,Cc1cccc(-c2sc(Nc3ccccc3)n[n+]2-c2ccccc2)c1.[Cl-],-72%
17,CCC(=O)N1CCc2cc(S(=O)(=O)NC(Cc3ccccc3)C(=O)NC3CCCC3)ccc21 (stereo not drawn),17.5%
18,CC(=O)Nc1cccc(C(=O)OCC(=O)Nc2c(C)nn(-c3ccccc3)c2C)c1,12.1%
19,CCOP(=O)(OCC)C(Nc1cccc([N+](=O)[O-])c1)c1ccccc1 (stereo not drawn),-18.4%
20,O=C(Nc1ccccc1)C1CC=CCC1C(=O)OCC1CCCO1 (stereo not drawn),-5.39%
21,Cc1cc(-c2nnc(SCC(=O)NC3CCCC3)o2)no1,-4.1%
22,CCOc1ccccc1NC(=O)NC1CC2CCCC(C1)N2Cc1nnnn1CCc1ccccc1 (stereo not drawn),-5.67%
